Laboratory results taken from the supplement of paper PMC3334620.
Whole data set: some 33,000 sequences, median “E-score (-0.5 to 0.5)” near -0.035, cut for the highest 2% near 0.35. This is one part of the list.

biological target: T1, Pdr3 (UniProt P33200); test: PBM E-score (8-mer binding enrichment) (E-score (-0.5 to 0.5)); higher = stronger / more preferred TF binding; most listed sequences are background and not binding sites; conditions: protein concentration: 200 nM; construct: GST-full length
T1 sequence: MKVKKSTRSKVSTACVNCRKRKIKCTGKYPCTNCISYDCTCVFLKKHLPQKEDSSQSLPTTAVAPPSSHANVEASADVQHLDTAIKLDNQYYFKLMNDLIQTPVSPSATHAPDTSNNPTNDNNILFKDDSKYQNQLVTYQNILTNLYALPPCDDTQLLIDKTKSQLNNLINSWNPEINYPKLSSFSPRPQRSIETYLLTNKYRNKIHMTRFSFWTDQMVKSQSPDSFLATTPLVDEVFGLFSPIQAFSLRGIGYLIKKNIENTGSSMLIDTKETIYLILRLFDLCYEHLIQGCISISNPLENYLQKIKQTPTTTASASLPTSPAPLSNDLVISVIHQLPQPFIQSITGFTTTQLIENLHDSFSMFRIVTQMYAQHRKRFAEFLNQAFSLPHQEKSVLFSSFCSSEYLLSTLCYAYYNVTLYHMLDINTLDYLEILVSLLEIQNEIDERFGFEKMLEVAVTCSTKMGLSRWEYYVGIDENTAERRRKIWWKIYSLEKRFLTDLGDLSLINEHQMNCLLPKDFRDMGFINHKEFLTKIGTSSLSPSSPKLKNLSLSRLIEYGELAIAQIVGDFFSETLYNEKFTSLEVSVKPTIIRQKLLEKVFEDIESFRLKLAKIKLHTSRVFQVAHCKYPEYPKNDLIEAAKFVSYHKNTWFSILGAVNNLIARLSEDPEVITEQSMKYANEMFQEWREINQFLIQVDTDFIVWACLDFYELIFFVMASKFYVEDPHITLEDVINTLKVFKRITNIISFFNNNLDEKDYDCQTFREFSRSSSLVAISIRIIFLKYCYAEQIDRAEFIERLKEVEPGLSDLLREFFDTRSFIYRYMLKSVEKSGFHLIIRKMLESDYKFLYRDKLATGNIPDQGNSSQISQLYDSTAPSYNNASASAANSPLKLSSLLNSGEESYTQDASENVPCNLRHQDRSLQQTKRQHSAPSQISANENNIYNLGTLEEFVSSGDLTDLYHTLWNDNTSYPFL
In short: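 Bound GST-tagged yeast transcription factors, applied at about 100-200 nM to double-stranded universal all-10-mer Agilent arrays, were detected with fluorescent anti-GST. Scans were normalised with masliner. A modified Wilcoxon-Mann-Whitney statistic, the E-score, was assigned to each ungapped eight-base word pooled with its reverse complement by the Universal PBM Analysis Suite.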

Row | Sequence | PBM E-score
1 | CTCGGAGA | 0.312
2 | GTCAGATA | -0.0744
3 | ACGCTCAC | -0.0101
4 | CTGATTGC | -0.0452
5 | GATACAGC | 0.143
6 | AAGAGCCT | -0.236
7 | ATGCTAAG | -0.173
8 | AACGTGTG | -0.324
9 | CTCCAATC | -0.0449
10 | GCCCAACC | 0.056
11 | CAGACACG | -0.00957
12 | ATATTGTC | 0.194
13 | ACCTTTCA | -0.0243
14 | GACGATCC | 0.223
15 | ACGCGGCG | 0.209
16 | CTATGGGA | -0.116
17 | AAGTGCCC | 0.0267
18 | AGAACAGC | -0.0171
19 | ATCATAGC | -0.025
20 | GAACTACC | 0.0415
21 | GAACACGC | 0.106
22 | CTGCTGAC | -0.0562
23 | CTAATCTA | -0.128
24 | GTCCTAGA | -0.23
25 | AAACCATG | 0.141

Row | Sequence | PBM E-score
26 | TGACGTCA | 0.0226
27 | GGGAAGAA | -0.0436
28 | ACACAAGG | -0.149
29 | ATAGGTCG | 0.0936
30 | ATCCTGCG | -0.0951
31 | TCCTTCCA | -0.133
32 | CATTATTC | 0.0651
33 | CGAAGACC | 0.0631
34 | CTCTTAAG | -0.162
35 | AGTCGCCA | -0.248
36 | ATCCCCGG | 0.386
37 | CTTTGAGC | -0.241
38 | ATGCCCAT | -0.183
39 | ACTGCACA | -0.193
40 | CATCGTCG | -0.12
41 | CTTGAGAC | -0.228
42 | CATGACCG | 0.0152
43 | CACGAATG | -0.0841
44 | ACGCCTTC | -0.0435
45 | AGACCTCT | -0.166
46 | ATAGGTAA | -0.194
47 | ACTGCACT | -0.0921
48 | CGCAAAAC | 0.0542
49 | CTCACCGC | -0.0657
50 | GCACCCGC | 0.287

Row | Sequence | PBM E-score
51 | AGGGTGAT | -0.181
52 | CGAATCGC | 0.0252
53 | AGTTAATA | 0.109
54 | AGACAGCT | -0.174
55 | CGCCTCTC | -0.308
56 | GAATGCTC | 0.0393
57 | CAGGCTGA | -0.188
58 | CCACCAAC | 0.0804
59 | TAAAGACA | -0.229
60 | ACCGGCGT | 0.0675
61 | TCGCTACA | -0.285
62 | ATGAATGC | 0.00547
63 | CTCATAAC | -0.168
64 | ATGACAAT | -0.0353
65 | AATTTCTG | -0.0978
66 | GAGCATAA | 0.178
67 | AAATTTAA | 0.0473
68 | ATACGTAG | -0.129
69 | GTTCTGCA | -0.0811
70 | CCGTGCTA | 0.0735
71 | ACTCAGCC | -0.146
72 | TCTCGTAA | -0.0824
73 | GTATTCAC | 0.142
74 | CCCAGTCG | 0.0531
75 | AAACGTAC | -0.169

Row | Sequence | PBM E-score
76 | ATGCTACG | -0.00101
77 | ACATGAAC | -0.094
78 | ATCACAGG | -0.194
79 | TGCTCCAA | -0.106
80 | CCATAGGC | -0.0293
81 | ACGAGCTG | -0.065
82 | CAAGCGCA | 0.15
83 | CTTCTGAC | -0.272
84 | CTGCAGTA | -0.195
85 | TCTAAAAA | -0.222
86 | ACCTTTTC | -0.156
87 | GTTTGACA | 0.0509
88 | CCCGCCGC | 0.27
89 | TGAAAGAA | -0.108
90 | ATTTGCGA | -0.0443
91 | CCTCCACG | -0.0326
92 | AAGGGGAG | -0.118
93 | CGGGTAGA | 0.15
94 | CATCACCA | -0.148
95 | TACGACAA | 0.00989
96 | CGCGTACC | -0.133
97 | ACCACTCC | 0.197
98 | ACAGGTAT | -0.038
99 | AGAAGATG | -0.124
100 | GTGCGAAC | 0.0001

Row | Sequence | PBM E-score
101 | AGCCTTTA | -0.193
102 | ATCGCGGA | 0.282
103 | CTACAGTC | -0.245
104 | ACATAACG | 0.00157
105 | CCCCGTGC | 0.264
106 | CCTTTATA | -0.263
107 | ACGCACGT | -0.184
108 | ACGATAGA | -0.244
109 | CCATGTTC | 0.0963
110 | AGATCCGG | 0.362
111 | AAAAGAAT | 0.121
112 | GACGCGAA | 0.117
113 | CAACGCGA | 0.114
114 | ACGGACGC | 0.205
115 | ACCGCGCA | 0.0742
116 | GAACGAGA | 0.0162
117 | GTTGGCCA | -0.05
118 | CCACTACG | 0.0288
119 | GGTGGGCA | -0.114
120 | AAACGTCA | -0.149
121 | ATTCGGTC | 0.0502
122 | GAGACAGA | 0.0698
123 | ATTGCAGG | -0.0394
124 | TTTACAAA | -0.125
125 | AGATGGTG | -0.184

Row | Sequence | PBM E-score
126 | ATTGAAAT | -0.0141
127 | CCGGCGCG | 0.314
128 | TATGTAAA | -0.0204
129 | ATCATCAG | -0.0703
130 | AGTATCAA | 0.159
131 | CCGCTTCG | -0.00951
132 | CGGTTGGA | 0.0147
133 | AACAAGCA | -0.103
134 | CAGAAGCG | 0.087
135 | CGTGCGGC | 0.0733
136 | GTTTTAAA | -0.0722
137 | GCGGGTGA | 0.26
138 | GTGTCCAA | 0.0112
139 | GTAATTAC | 0.0427
140 | ACCGTAGC | -0.1
141 | ACCTCATG | -0.284
142 | GCCGCAGC | 0.0881
143 | GGAGAATA | 0.103
144 | CAGGGAGG | -0.249
145 | CCACGACA | 0.0954
146 | ACGCTGGA | -0.019
147 | CTGTTATC | -0.0181
148 | GATATTTA | 0.0188
149 | CGTCAACC | 0.00812
150 | TAGTTGCA | -0.0621

Row | Sequence | PBM E-score
151 | TCTACGAA | -0.271
152 | TCTGCAGA | -0.133
153 | ATTTTCCC | 0.151
154 | GGCACACC | -0.0278
155 | CGACTAAG | -0.0883
156 | GTATTTAA | -0.0813
157 | GCCTCGAC | -0.101
158 | ACGTAAGG | -0.223
159 | ATAGATAT | 0.117
160 | ACAACCTG | -0.244
161 | ATACACCA | -0.153
162 | AGTGGGAG | -0.149
163 | AGTGTCGC | -0.0529
164 | ATTTGATA | -0.0459
165 | AGCATACT | -0.115
166 | AGATCTAG | -0.251
167 | CCATACTA | 0.0554
168 | CTCGTACC | -0.0678
169 | AAGTAAAT | -0.0857
170 | CTGCTTTC | 0.0128
171 | ATGGACAC | 0.0372
172 | ACTGAACA | 0.00031
